Reference: PubChem BioAssay (Tox21)
Where “and” joins values, the source holds several entries; their conditions need not be identical. Equal values may be shown once. The shares of active, inactive and inconclusive entries below differ from those in the screen. For some of these results: A potency beside an inconclusive call is a rough fit, not a confirmed value. Calls of active or inactive are those of the source. Unless noted, calls come from the whole dose curve; as a rule, active = well fitted curve in the direction sought with a large enough effect in the repeat runs; inconclusive = weak or mixed curves; inactive = no such curve, though single readings can be large; an effect the other way counts as inactive or inconclusive.

System: not listed separately
Assay: qHTS assay for small molecule agonists of the antioxidant response element (ARE) signaling pathway - cell viability counter screen (AID 743203; calls by dose curve; note: nearly all actives have a fitted effect of over 55% in size)
Details: ARE-bla HepG2 viability, CellTiter-Glo luminescence, 16 h; series mostly up to 73.3 µM; viability change, negative = cytotoxic: at the top concentration
Procedure, shortened: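 CellSensor ARE-bla HepG2 cells, 2,000 per well, rested 5 hrs at 37C/5% CO2, then exposed to compound in DMSO for 16 hrs; viability read as CellTiter-Glo luminescence after 30 min at room temperature, in the reporter wells.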
% is set by controls: 0 for no effect and ±100 for the full control effect; tags give direction and shape of the fitted curve or compound fluorescence and quenching.

Structure (SMILES) | viability change, negative = cytotoxic
CCCCCCBr | inactive: -6.17% [at 94.8 µM]
CC(Cc1ccc(OCC(=O)O)cc1)NCC(O)c1csc(C(F)(F)F)n1 (stereo not given) | inactive: 8.52%
CC(C)N(CCC(C(N)=O)(c1ccccc1)c1ccccn1)C(C)C (stereo not given) | inactive: -11.3%

System: not listed separately
Assay: qHTS assay for small molecule activators of the heat shock response signaling pathway - cell viability counter screen (AID 743209); note: nearly all actives have a fitted effect of over 50% in size; note: potency is the fitted concentration of half-maximal effect
Details: HSE-bla HeLa viability, CellTiter-Glo luminescence, 5 h; activity change, negative = cytotoxicity: at 62.6 µM (top of the series) unless noted
Procedure, shortened: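 CellSensor HSE-bla HeLa cells, plated overnight at 37 C/5% CO2, were exposed to compounds in DMSO for 5 h at 37 C. Viability was then read in the same wells by CellTiter-Glo luminescence after 30 min at room temperature.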

Structure (SMILES) | activity change, negative = cytotoxicity | Potency
CC(C)(Cl)[N+](=O)[O-] | inactive: 9.37% [at 81.1 µM] | 
CC(=NC#N)N(C)Cc1ccc(Cl)nc1 | inactive: -2.98% | 
CCOC(=S)S |  | inconclusive: 16.5 µM [cytotoxic, partial curve, poor fit]
CC(=O)C(C)(C)C |  | inconclusive: 0.002 µM [cytotoxic, full curve, poor fit]
CCOCN(C(=O)CCl)c1c(C)cccc1CC |  | inconclusive: 51.9 µM [cytotoxic, single point] and inconclusive: 49 µM [cytotoxic, partial curve]
O=C(O)c1ccccc1O |  | inconclusive: 2.24 µM [rising, partial curve]

System: not listed separately
Assay: qHTS assay for small molecule activators of the heat shock response signaling pathway (AID 743210; active = well fitted activation curve with a large enough effect in the signal ratio in the repeat runs, with a control signal flat, not every such curve was filed as active; inconclusive = weak or mixed curves; the % refers to the signal ratio; note: potency is the fitted concentration of half-maximal effect)
Details: HeLa HSE-bla reporter, beta-lactamase ratio, 5 h; activation: at 62.6 µM (top of the series)
Procedure, shortened: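 HSE-bla HeLa cells (beta-lactamase reporter under heat shock response elements), plated overnight, then exposed to compounds 5 h at 37 C; LiveBLAzer B/G FRET substrate added, 2.5 h at room temperature, fluorescence intensity read.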

Structure (SMILES) | Potency | activation
c1ccc(CN2CCNCC2)cc1 | inconclusive: 166 µM [activator] | 
CC(Cl)C(C)Cl (stereo not given) | inconclusive: 13.6 µM [rising, partial curve, poor fit] | 
O=C(O)CCCCCCNC1c2ccccc2CCc2ccccc21 |  | inactive: -0.075%
CCOC(=S)S | active: 2.24 µM | 
Nc1cc(Cl)ccc1Cl |  | inactive: -0.234%
CCCN(CCC)c1c([N+](=O)[O-])cc(S(C)(=O)=O)cc1[N+](=O)[O-] | inconclusive: 69.2 µM [falling, partial curve, poor fit] | 
COc1cccc(C=O)c1 |  | inactive: -1.31%
CCOCN(C(=O)CCl)c1c(C)cccc1CC | inconclusive: 56.1 µM and inconclusive: 61.6 µM [single point] | 

System: not listed separately
Assay: qHTS assay to identify small molecule agonists of the peroxisome proliferator-activated receptor delta (PPARd) signaling pathway - cell viability counter screen (AID 743211); note: nearly all actives have a fitted effect of over 55% in size; note: potency is the fitted concentration of half-maximal effect
Details: PPARd-bla HEK293H viability, CellTiter-Glo luminescence, 17 h; activity change, negative = cytotoxicity: at 62.6 µM (top of the series) unless noted
Procedure, shortened: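 Tox21 library compounds, delivered in DMSO, were incubated 17 h with PPARd-bla HEK293H cells; cytotoxicity was taken from CellTiter-Glo luminescence read 30 min after reagent addition.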

Structure (SMILES) | activity change, negative = cytotoxicity | Potency
O=C(O)CCCCCCNC1c2ccccc2CCc2ccccc21 | inactive: 0.145% | 
CCOC(=S)S |  | inconclusive: 24.5 µM [cytotoxic, full curve, poor fit] and inconclusive: 26.1 µM [cytotoxic, partial curve]
CCCCP(CCCC)CCCC |  | inconclusive: 17.4 µM [cytotoxic, partial curve, poor fit]
CCOCN(C(=O)CCl)c1c(C)cccc1CC |  | inconclusive: 54.9 µM [cytotoxic, single point]

Target: Peroxisome proliferator-activated receptor delta (Homo sapiens) (UniProt Q03181)
Assay: qHTS assay to identify small molecule agonists of the peroxisome proliferator-activated receptor delta (PPARd) signaling pathway (AID 743212; calls by dose curve;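 note: HEK293H cells with PPARd UAS beta-lactamase reporter GeneBLAzer system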; note: potency is the fitted concentration of half-maximal effect)
Details: HEK293H PPARd-UAS-bla, beta-lactamase FRET ratio, 17 h; activation: at 62.6 µM (top of the series) unless noted
Procedure, shortened: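 GeneBLAzer UAS-bla HEK293H cells carrying a PPARδ construct were exposed to compounds at 37 °C. Beta-lactamase activity was read by FRET fluorescence after 2 h at room temperature with LiveBLAzer B/G substrate.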

Sequence of UniProt Q03181 (Q03181 whole entry, looked up): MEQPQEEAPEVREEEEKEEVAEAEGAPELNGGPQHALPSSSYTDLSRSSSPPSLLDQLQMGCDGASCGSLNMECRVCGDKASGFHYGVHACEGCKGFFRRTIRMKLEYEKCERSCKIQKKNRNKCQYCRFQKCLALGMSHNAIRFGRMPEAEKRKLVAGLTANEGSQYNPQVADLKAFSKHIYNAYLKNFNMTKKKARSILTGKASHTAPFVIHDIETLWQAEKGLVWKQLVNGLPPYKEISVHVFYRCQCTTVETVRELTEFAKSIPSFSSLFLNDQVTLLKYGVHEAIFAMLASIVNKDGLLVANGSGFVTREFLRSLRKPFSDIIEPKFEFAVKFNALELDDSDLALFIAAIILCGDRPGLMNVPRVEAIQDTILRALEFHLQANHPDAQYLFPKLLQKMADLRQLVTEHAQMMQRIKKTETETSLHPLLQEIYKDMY

Structure (SMILES) | activation | Potency
CC(C)(Cl)[N+](=O)[O-] | inactive: -2.87% [at 81.1 µM] | 
O=C/C=C/c1ccco1 | inactive: 1.17% | 
CC(C)N(CCC(C(N)=O)(c1ccccc1)c1ccccn1)C(C)C (stereo not given) | inactive: 1.33% | 
O=C(O)CCCCCCNC1c2ccccc2CCc2ccccc21 |  | inconclusive: 15 µM [rising, partial curve, poor fit]
C=CCN=C=S |  | inactive
C=C(C)C#N |  | inactive
Cc1c(Cl)c(=O)oc2cc(OP(=O)(OCCCl)OCCCl)ccc12 |  | inconclusive: 8.41 µM [rising, full curve]
COP(N)(=O)SC (stereo not given) |  | inconclusive: 61.2 µM [rising, single point]

System: not listed separately
Assay: qHTS assay to identify small molecule antagonists of the peroxisome proliferator-activated receptor delta (PPARd) signaling pathway - cell viability counter screen (AID 743213); note: nearly all actives have a fitted effect of over 50% in size; note: potency is the fitted concentration of half-maximal effect
Details: PPARd-bla HEK293H viability, CellTiter-Glo luminescence, 17 h; viability change, negative = cytotoxic: at 62 µM (top of the series) unless noted
Procedure, shortened: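 Cytotoxicity counter screen: CellTiter-Glo luminescence read 30 min after addition, in the same wells as the reporter assay. There, PPARd UAS-bla HEK293H cells (3000/well) were treated 17 h at 37 C with compound and 300 nM L165041.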

Structure (SMILES) | Potency | viability change, negative = cytotoxic
CCC[N+]1(C)CCCC1 | inconclusive: 440 nM [cytotoxic, full curve, poor fit] | 
CN(C)P(=O)(N(C)C)N(C)C | inconclusive: 2170 nM [cytotoxic, single point] | 
Nc1ccccc1Cl |  | inactive: 5.93%
CCCCCCBr | inconclusive: 24.8 nM [cytotoxic, full curve, poor fit] | 
CC(COc1ccc(Oc2ccccc2)cc1)Oc1ccccn1 (stereo not given) | inconclusive: 6910 nM [rising, partial curve, poor fit] | 
CN/C(=N\[N+](=O)[O-])NCC1CCOC1 (stereo not given) |  | inactive: -0.593%
CCOC(=S)S | inconclusive: 54.9 µM [cytotoxic, single point] and active: 29.3 µM | 
BrCC(Br)C1CCC(Br)C(Br)C1 (stereo not given) | inconclusive: 194 nM [cytotoxic, single point] | 
C=C(C)C#N | inconclusive: 12300 nM [cytotoxic, single point] | 
CCOCN(C(=O)CCl)c1c(C)cccc1CC | inconclusive: 61600 nM [cytotoxic, single point] | 
COP(N)(=O)SC (stereo not given) | inactive | 
O=C(O)c1ccccc1O | inactive | 
O=S(=O)(Cl)Cl | inconclusive: 8.4 nM [cytotoxic, full curve, poor fit] | 

Target: Peroxisome proliferator-activated receptor delta (Homo sapiens) (UniProt Q03181)
Assay: qHTS assay to identify small molecule antagonists of the peroxisome proliferator-activated receptor delta (PPARd) signaling pathway (AID 743215; active = well fitted inhibition curve with a large enough effect in the signal ratio in the repeat runs, not every such curve was filed as active; inconclusive = weak or mixed curves, or effect the other way; inactive = no such curve, though single readings can be large or run the other way; the % refers to the signal ratio;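 note: cells stimulated with agonist L165041 at 300 nM final during compound exposure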)
Details: HEK293H PPARd-UAS-bla, beta-lactamase FRET ratio, antagonist, 17 h; ratio activity, negative = inhibition: at 62 µM (top of the series) unless noted
Procedure, shortened: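 PPARd UAS-bla HEK293H cells were pre-incubated 5 h at 37 C, then given test compounds in DMSO plus agonist L165041 (300 nM final). After 17 h at 37 C, beta-lactamase FRET substrate was added; fluorescence read after 2 h at room temperature.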

Structure (SMILES) | Potency | ratio activity, negative = inhibition
[N-]=[N+]=[N-] | inactive | 
CC1OC(C)OC(C)O1 (stereo not given) | inactive | 
CC(=NC#N)N(C)Cc1ccc(Cl)nc1 |  | inconclusive: 7.22%
Cc1ncc(CNC(=O)N(CCCl)N=O)c(N)n1 |  | inconclusive: 4.69%
Cc1c(Cl)c(=O)oc2cc(OP(=O)(OCCCl)OCCCl)ccc12 |  | inconclusive: 28.4%
COc1cccc(C=O)c1 |  | inconclusive: -9.77%
O=C(O)C(Br)(Br)Br |  | inconclusive: 5.34%

Target: Bile acid receptor (Homo sapiens) (UniProt Q96RI1)
Assay: qHTS assay to identify small molecule antagonists of the farnesoid-X-receptor (FXR) signaling pathway (AID 743217; active = well fitted inhibition curve with a large enough effect in the signal ratio in the repeat runs, not every such curve was filed as active; inconclusive = weak or mixed curves, or effect the other way; inactive = no such curve, though single readings can be large or run the other way; the % refers to the signal ratio; note: potency is the fitted concentration of half-maximal effect)
Details: HEK293T FXR-UAS-bla, beta-lactamase ratio, CDCA-stimulated, 16 h; activity change, negative = inhibition: at 62.6 µM (top of the series) unless noted
Procedure, shortened: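 FXR-UAS-bla HEK 293T cells pre-incubated 5 h at 37 °C, then exposed to compounds with chenodeoxycholic acid (50 uM final) for 16 h at 37 °C. Beta-lactamase reporter read by LiveBLAzer B/G FRET substrate fluorescence after 2 h at room temperature.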

Sequence of UniProt Q96RI1 (Q96RI1 whole entry, looked up): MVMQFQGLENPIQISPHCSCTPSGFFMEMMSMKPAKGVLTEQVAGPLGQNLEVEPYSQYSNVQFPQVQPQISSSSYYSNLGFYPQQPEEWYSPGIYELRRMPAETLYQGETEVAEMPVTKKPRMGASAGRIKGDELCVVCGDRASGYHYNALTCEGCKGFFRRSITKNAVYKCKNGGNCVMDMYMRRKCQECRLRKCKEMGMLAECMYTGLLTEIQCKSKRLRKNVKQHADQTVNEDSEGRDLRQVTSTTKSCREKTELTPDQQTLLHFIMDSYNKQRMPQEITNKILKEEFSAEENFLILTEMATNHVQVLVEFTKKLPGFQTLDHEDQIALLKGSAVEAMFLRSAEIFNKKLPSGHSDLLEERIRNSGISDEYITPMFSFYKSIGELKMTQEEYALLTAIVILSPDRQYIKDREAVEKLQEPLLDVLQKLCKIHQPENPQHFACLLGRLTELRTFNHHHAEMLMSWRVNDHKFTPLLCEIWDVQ

Structure (SMILES) | Potency | activity change, negative = inhibition
CN(C)P(=O)(N(C)C)N(C)C | inactive | 
O=C(O)CCCc1ccc(N(CCCl)CCCl)cc1 |  | inconclusive: 5.71%
CC1OC(C)OC(C)O1 (stereo not given) | inactive | 
CN(C)c1ccccc1 |  | inconclusive: 18.9% [at 81.1 µM]
CCOC(=S)S | inactive | 
CCc1ccc(C(=O)NN(C(=O)c2cc(C)cc(C)c2)C(C)(C)C)cc1 | active: 54.9 µM | 
